From PubChem BioAssay AID757 (NMMLSC, 2007)
In all, about 190,000 compounds went through this assay and about 520 (0.27%) were called active. This list was built around the results that the source calls inconclusive (neither active nor inactive); the mix of calls is not that of the screen.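 Rule for the calls: active = GTP binding activity at least 20 points away from the 100% control level, either lower or higher; inconclusive = compound flagged as likely green fluorescent, judged across all proteins; inactive = the rest.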

target: Ras-related C3 botulinum toxin substrate 1 (Homo sapiens) (UniProt P63000); assay: compounds altering fluorescent GTP loading on wildtype Rac1 – biochemical, GST-Rac1 beads, flow cytometry, multiplex, primary screen (AID 757); settings: at 10 µM, actives lie on both sides

Row | Structure (SMILES) | GTP binding activity (% of control)
1 | COc1ccccc1N1C(=O)NC(=O)C2(Cc3cc(C)ccc3N(C)C2)C1=O (configuration not stated) | inactive: 97%
2 | COCCN1Cc2cc(=O)n3c([nH]c4ccccc43)c2C1=N | inconclusive: 89%
3 | CCN(CC)CCNCC(=O)Nc1ccc(Cl)cc1C(=O)c1ccccc1 | inconclusive: 105%
4 | CC(C)(C)C(=O)OCC12CCC(O1)C1(C)C(=O)OCC21 (configuration not stated) | inconclusive: 104%
5 | CCOC(=O)c1c(NC(=O)c2c(N)n(CCCOC)c3nc4ccccc4nc23)sc2c1CCCC2 | inconclusive: 83%
6 | [N-]=[N+]=NC1C[C@H](n2ccc(=O)[nH]c2=O)O[C@@H]1CO (some centres not stated) | inactive: 102%
7 | CCn1nc(/C=C/c2ccccc2)nc2c(=O)n(C)c(=O)nc1-2 | inactive: 96%
8 | Cc1nn(Cc2ccccc2Cl)c(Cl)c1C(=O)O | inconclusive: 94%
9 | CC(=O)C1C(=O)NC23CCCCC2C1c1ccccc1O3 (configuration not stated) | inconclusive: 101%
10 | Cn1cccc1CNCCc1ccccc1F | inactive: 102%
11 | CCC(C)N1Cc2ccccc2C1=N (configuration not stated) | inconclusive: 108%
12 | Cc1cc(C)c(C2=NOC(O)(C(F)(F)F)C2)c(=O)[nH]1 (configuration not stated) | inconclusive: 104%
13 | Cc1nc2cc(C(=O)N3CCC4(CC3)OCCO4)ccc2n1-c1cccc(F)c1 | inconclusive: 93%
14 | CCCC(=O)NC(Oc1ccc(C(C)=O)cc1)C(Cl)(Cl)Cl (configuration not stated) | inactive: 98%
15 | COc1ccccc1N1CCN(Cc2cccc(OC)c2O)CC1 | inconclusive: 108%
16 | Cc1ccc(CCN2CC(C(=O)N3CCC4(CC3)OCCO4)CC2=O)cc1 (configuration not stated) | inconclusive: 95%
17 | CCCSP1(=S)NCCCO1 (configuration not stated) | inconclusive: 102%
18 | CC(C)(C)c1ccc(C(=O)C2CCCN(C3CCC3)C2)cc1 (configuration not stated) | inactive: 100%
19 | Cc1sc(-n2c(C)cc(C=C3C(=O)NC(=O)NC3=O)c2C)c(C#N)c1C | active: 79%
20 | CNCCc1nc(N)n[nH]1 | inconclusive: 106%
21 | O=c1c2ccccc2ncn1-c1ccc([N+](=O)[O-])c(C(F)(F)F)c1 | inconclusive: 104%

Row | Structure (SMILES) | GTP binding activity (% of control)
22 | OC1CCCCC1N1CCC(c2ccccc2)CC1 (configuration not stated) | inactive: 100%
23 | CSc1nnc([C@@H](N)Cc2c[nH]c3ccccc23)o1 | inconclusive: 101%
24 | N=Cc1c(O)n(-c2cccc(Cl)c2)c(=O)[nH]c1=O | inconclusive: 102%
25 | O=C1NC(=O)N(CCNc2ncc(C(F)(F)F)cc2Cl)C(=O)C1Cc1ccc(Cl)cc1 (configuration not stated) | inconclusive: 95%
26 | CCCCN1C(=O)/C(=C\c2ccco2)C(=O)N(CCc2ccccc2)C1=O | inconclusive: 89%
27 | O=C(c1cccc2ccccc12)C1CCCN(C2CCC2)C1 (configuration not stated) | inactive: 96%
28 | O=c1[nH]c(=S)[nH]c(O)c1N=Nc1cc2c(cc1[N+](=O)[O-])OCO2 | inactive: 83%
29 | O=C1NC(=O)C(=Cc2cc(Cl)ccc2OCc2ccc(C(=O)O)cc2)C(=O)N1 | inconclusive: 93%
30 | CCCCCCN=C(CC)c1c(O)n(CCCC)c(=O)[nH]c1=O | inconclusive: 105%
31 | OC(CCNCCc1c[nH]c2ccccc12)C(F)(F)F (configuration not stated) | inactive: 101%
32 | Cc1ccc(NC(=O)c2snnc2C)cc1Cl | inconclusive: 91%
33 | Cc1cc(NC(=O)CCl)no1 | inconclusive: 100%
34 | CC(=O)OC1N=C(c2ccccc2)c2cc(C)ccc2NC1=O (configuration not stated) | inactive: 106%
35 | COc1cccc(C(=O)C2CCCN(Cc3cccc4c3OCO4)C2)c1 (configuration not stated) | inactive: 96%
36 | CCN(CC)c1ccc(/C=N/c2sc3c(c2C#N)C2CCN3CC2)c(O)c1 | inconclusive: 116%
37 | CC(C)[C@H]1C(=O)O[C@H](C(C)C)C(=O)N(C)[C@@H](C(C)C)C(=O)O[C@H](C(C)C)C(=O)N(C)[C@@H](C(C)C)C(=O)O[C@H](C(C)C)C(=O)N1C | inconclusive: 97%
38 | Cc1cc(Br)c(NC(=O)CN2CC=C(c3ccccc3)CC2)c(Br)c1 | inconclusive: 95%
39 | Cn1c(O)c(C(c2ccccn2)c2c(O)n(C)c(=S)[nH]c2=O)c(=O)[nH]c1=S | inactive: 100%
40 | Cc1ccc(-n2c(O)c(/C=N/c3ncc(Br)cc3Br)c(=O)[nH]c2=O)cc1 | active: 123% [activator]
41 | COc1ccc(NC(=O)c2cn(CCC#N)nc2-c2ccc([N+](=O)[O-])cc2)cc1 | inconclusive: 95%
42 | Cc1cc(C(=O)CS(=O)c2ccc(F)cc2)cc(C)c1OC(=O)N(C)C (configuration not stated) | inactive: 105%
